# Measurements taken from the supplement of paper PMC8728848.
# The other results are listed elsewhere or left out.
# B1: PX14379A-bvu-539-28-539 (Bacteroides vulgatus) (protein)
# chain: EPYSEIIEEDYVPTEADEIALLATTYSQLRFVMDWYGLFDLQEESGDVIVTPTRPNGWDDGGTYKQMHKHTWDNQQGQPQSIWDYCYKGIANANKILKRADEGFFTEESKPKVVAEVKGVRALWYSILCDTHGNIPIQTSFSEEVPVQSTRKQVFDFIINELKEVMPNLPTEVNKSTYGRLTQWGAKCLMARMYLNAGVYTGTPMWNECLEQCNDIINSGLFSLETNYTDIFKTENSGCVETIFAIPYDEVYNEGDNNGPVFGAHMKFLSSNSRKVFNMQTTPWGGSAANPQFINSYDPDDMRLKYTWLQGDQYSPDGVLITTFPNKLPSIYKTDTDDGYRVGKYEIKVGAKSLLSNDFPYFRYTEVLLMKAECLLRLGQNETEAAHIVSQIRERAFRESAHPEKATVDAAWLKGDTHINYGTLDEKGQIDDAGNTEVVELGGLYDEWGWEFAAEARRRTDMIRFGTYQKKSWFNHTPTANDLNGNSILFPIHLDHLNTNPNLQQNPGYAGK
# Tests used:
# Experiment in all cases: glycan array binding signal (z-score within array); higher = stronger binding
# Details in all cases: glycan notation: IUPAC condensed, linker removed
# Glc(b1-6)Glc = target: Glc(b1-6)Glc
# Method in brief: (§1)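 Columns mapping to the same glycan were averaged after glycan names were converted to IUPAC-condensed notation. The data come from 3228 arrays in the Consortium for Functional Glycomics database, limited to those with an available protein sequence. Binding is reported as a within-array Z-score averaged across arrays of one protein sequence and across linkers.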
# GlcA(b1-3)Gal = target: GlcA(b1-3)Gal
# Method in brief: as §1
# GlcA(b1-3)GlcNAc = target: GlcA(b1-3)GlcNAc
# Method in brief: as §1
# GlcA(b1-6)Gal = target: GlcA(b1-6)Gal
# Method in brief: as §1
# [1] = target: GlcA3S(b1-3)Gal(b1-4)GlcNAc(b1-2)Man
# Method in brief: as §1
# [2] = target: GlcA3S(b1-3)Gal(b1-4)GlcNAc(b1-3)Gal(b1-4)Glc
# Method in brief: as §1
# [3] = target: GlcNAc(a1-3)Gal(b1-4)GlcNAc
# Method in brief: as §1
# [4] = target: GlcNAc(a1-4)Gal(b1-3)GlcNAc
# Method in brief: as §1
# [5] = target: GlcNAc(a1-4)Gal(b1-4)GalNAc
# Method in brief: as §1
# [6] = target: GlcNAc(a1-4)Gal(b1-4)GlcNAc
# Method in brief: as §1
# [7] = target: GlcNAc(a1-4)Gal(b1-4)GlcNAc(b1-3)Gal(b1-4)Glc
# Method in brief: as §1
# [8] = target: GlcNAc(a1-4)Gal(b1-4)GlcNAc(b1-3)Gal(b1-4)GlcNAc
# Method in brief: as §1
# [9] = target: GlcNAc(a1-4)Gal(b1-4)GlcNAc(b1-3)Gal(b1-4)GlcNAc(b1-3)Gal(b1-4)GlcNAc
# Method in brief: as §1
# [10] = target: GlcNAc(a1-4)Gal(b1-4)GlcNAc(b1-3)Gal(b1-4)[Fuc(a1-3)]GlcNAc(b1-3)Gal(b1-4)[Fuc(a1-3)]GlcNAc
# Method in brief: as §1
# [11] = target: GlcNAc(a1-6)Gal(b1-4)GlcNAc
# Method in brief: as §1
# [12] = target: GlcNAc(b1-2)Gal(b1-3)GalNAc
# Method in brief: as §1
# [13] = target: GlcNAc(b1-2)Man(a1-3)[GlcNAc(b1-2)Man(a1-6)]Man(b1-4)GlcNAc(b1-4)GlcNAc
# Method in brief: as §1
# [14] = target: GlcNAc(b1-2)Man(a1-3)[GlcNAc(b1-2)Man(a1-6)]Man(b1-4)GlcNAc(b1-4)[Fuc(a1-6)]GlcNAc
# Method in brief: as §1
# [15] = target: GlcNAc(b1-2)Man(a1-3)[GlcNAc(b1-4)][GlcNAc(b1-2)Man(a1-6)]Man(b1-4)GlcNAc(b1-4)GlcNAc
# Method in brief: as §1
# [16] = target: GlcNAc(b1-2)Man(a1-3)[GlcNAc(b1-4)][GlcNAc(b1-2)Man(a1-6)]Man(b1-4)GlcNAc(b1-4)[Fuc(a1-6)]GlcNAc
# Method in brief: as §1
# [17] = target: GlcNAc(b1-2)[GlcNAc(b1-4)]Man(a1-3)[GlcNAc(b1-2)Man(a1-6)]Man(b1-4)GlcNAc(b1-4)GlcNAc
# Method in brief: as §1
# [18] = target: GlcNAc(b1-2)[GlcNAc(b1-4)]Man(a1-3)[GlcNAc(b1-4)][GlcNAc(b1-2)Man(a1-6)]Man(b1-4)GlcNAc(b1-4)GlcNAc
# Method in brief: as §1
# [19] = target: GlcNAc(b1-2)[GlcNAc(b1-4)]Man(a1-3)[GlcNAc(b1-4)][GlcNAc(b1-2)[GlcNAc(b1-6)]Man(a1-6)]Man(b1-4)GlcNAc(b1-4)GlcNAc
# Method in brief: as §1
# [20] = target: GlcNAc(b1-2)[GlcNAc(b1-4)]Man(a1-3)[GlcNAc(b1-4)][GlcNAc(b1-2)[GlcNAc(b1-6)]Man(a1-6)]Man(b1-4)GlcNAc(b1-4)[Fuc(a1-6)]GlcNAc
# Method in brief: as §1
# [21] = target: GlcNAc(b1-2)[GlcNAc(b1-6)]Man(a1-6)[GlcNAc(b1-2)Man(a1-3)]Man(b1-4)GlcNAc(b1-4)GlcNAc
# Method in brief: as §1
# [22] = target: GlcNAc(b1-2)[GlcNAc(b1-6)]Man(a1-6)[GlcNAc(b1-2)Man(a1-3)]Man(b1-4)GlcNAc(b1-4)[Fuc(a1-6)]GlcNAc
# Method in brief: as §1
# [23] = target: GlcNAc(b1-2)[GlcNAc(b1-6)]Man(a1-6)[GlcNAc(b1-4)][GlcNAc(b1-2)Man(a1-3)]Man(b1-4)GlcNAc(b1-4)GlcNAc
# Method in brief: as §1
# GlcNAc(b1-3)Fuc = target: GlcNAc(b1-3)Fuc
# Method in brief: as §1
# GlcNAc(b1-3)Gal = target: GlcNAc(b1-3)Gal
# Method in brief: as §1
# [24] = target: GlcNAc(b1-3)Gal(b1-3)GalNAc
# Method in brief: as §1
# GlcNAc(b1-3)Gal(b1-4)Glc = target: GlcNAc(b1-3)Gal(b1-4)Glc
# Method in brief: as §1
# [25] = target: GlcNAc(b1-3)Gal(b1-4)GlcNAc
# Method in brief: as §1
# [26] = target: GlcNAc(b1-3)Gal(b1-4)GlcNAc(b1-2)Man(a1-3)[GlcNAc(b1-3)Gal(b1-4)GlcNAc(b1-2)Man(a1-6)]Man(b1-4)GlcNAc(b1-4)GlcNAc
# Method in brief: as §1
# [27] = target: GlcNAc(b1-3)Gal(b1-4)GlcNAc(b1-2)Man(a1-3)[GlcNAc(b1-3)Gal(b1-4)GlcNAc(b1-2)Man(a1-6)]Man(b1-4)GlcNAc(b1-4)[Fuc(a1-6)]GlcNAc
# Method in brief: as §1
# [28] = target: GlcNAc(b1-3)Gal(b1-4)GlcNAc(b1-2)[GlcNAc(b1-3)Gal(b1-4)GlcNAc(b1-6)]Man(a1-6)[GlcNAc(b1-3)Gal(b1-4)GlcNAc(b1-2)Man(a1-3)]Man(b1-4)GlcNAc(b1-4)GlcNAc
# Method in brief: as §1
# [29] = target: GlcNAc(b1-3)Gal(b1-4)GlcNAc(b1-3)Gal(b1-4)GlcNAc
# Method in brief: as §1
# [30] = target: GlcNAc(b1-3)Gal(b1-4)GlcNAc(b1-3)Gal(b1-4)GlcNAc(b1-2)Man(a1-3)[GlcNAc(b1-3)Gal(b1-4)GlcNAc(b1-3)Gal(b1-4)GlcNAc(b1-2)Man(a1-6)]Man(b1-4)GlcNAc(b1-4)GlcNAc
# Method in brief: as §1
binder,measurement,setting,value
B1,glycan array binding signal (z-score),Glc(b1-6)Glc,0.212
same,glycan array binding signal (z-score),GlcA(b1-3)Gal,-0.228
same,glycan array binding signal (z-score),GlcA(b1-3)GlcNAc,-0.262
same,glycan array binding signal (z-score),GlcA(b1-6)Gal,-0.175
same,glycan array binding signal (z-score),[1],-0.575
same,glycan array binding signal (z-score),[2],-0.319
same,glycan array binding signal (z-score),[3],-0.519
same,glycan array binding signal (z-score),[4],-0.151
same,glycan array binding signal (z-score),[5],-0.451
same,glycan array binding signal (z-score),[6],-0.238
same,glycan array binding signal (z-score),[7],-0.444
same,glycan array binding signal (z-score),[8],-0.358
same,glycan array binding signal (z-score),[9],-0.277
same,glycan array binding signal (z-score),[10],0.057
same,glycan array binding signal (z-score),[11],-0.313
same,glycan array binding signal (z-score),[12],-0.228
same,glycan array binding signal (z-score),[13],-0.32
same,glycan array binding signal (z-score),[14],-0.089
same,glycan array binding signal (z-score),[15],-0.315
same,glycan array binding signal (z-score),[16],-0.404
same,glycan array binding signal (z-score),[17],-0.48
same,glycan array binding signal (z-score),[18],-0.252
same,glycan array binding signal (z-score),[19],-0.493
same,glycan array binding signal (z-score),[20],-0.268
same,glycan array binding signal (z-score),[21],-0.233
same,glycan array binding signal (z-score),[22],-0.294
same,glycan array binding signal (z-score),[23],-0.158
same,glycan array binding signal (z-score),GlcNAc(b1-3)Fuc,-0.23
same,glycan array binding signal (z-score),GlcNAc(b1-3)Gal,-0.266
same,glycan array binding signal (z-score),[24],-0.27
same,glycan array binding signal (z-score),GlcNAc(b1-3)Gal(b1-4)Glc,-0.32
same,glycan array binding signal (z-score),[25],-0.337
same,glycan array binding signal (z-score),[26],-0.12
same,glycan array binding signal (z-score),[27],-0.419
same,glycan array binding signal (z-score),[28],0.18
same,glycan array binding signal (z-score),[29],-0.297
same,glycan array binding signal (z-score),[30],1.08
